Whole data set: some 13,000 compounds, median “IFI” near 4, cut for the highest 2% near 17. This is one part of the list.

A short description of this experiment: GSK_TCMDC: Inhibition Frequency Index (IFI). The number of non-kinase HTS assays where a compound showed > 50 % inhibition, expressed as a percentage of the number of such assays in which the compound was tested (-0 is zero). It counts as functional.
Turning to `O=C(Nc1cccc(C(F)(F)F)c1)Nc1nc2ccc([N+](=O)[O-])cc2s1`, the IFI was 14%. Take `Cc1ccc(CCNCC(O)c2cccc(C(F)(F)F)c2)cc1` (stereo not drawn): the IFI came to 3.62%.

The molecule `O=C(N[C@H]1CCN(Cc2ccc(OCCN3CCNCC3)c(Br)c2)C1)c1ccc(Cl)c(Cl)c1` had an IFI of 6.9%. The figure for `NC(=O)c1ccc(NCC(=O)Nc2cccc(-c3cccc(-c4nc5cc(C(F)(F)F)ccc5[nH]4)c3)c2)cc1` is 10.3%; for `CCN(CC)CCCC(C)Nc1c(-c2ccc(OC)cc2)cnc2ccccc12` (stereo not drawn) it is -0%; for `ON=C1CCc2cc(-c3nc(-c4ccc(OCCN5CCCCC5)cc4)[nH]c3-c3ccncc3)ccc21` it is 6.47%.

Molecule `Cc1cc(N2CCCC2)nc(Nc2ccc(NC(=O)c3ccco3)cc2)n1` had an IFI of 9.62%.

`O=C(NCCc1ccc(Cl)c(Cl)c1)[C@@H]1CCCN1C(=O)c1ccc(O)c(-c2ccc(Cl)c(Cl)c2)c1` registered an IFI of 4.44%. Consider `NC1CCN(Cc2cccc(-c3cccc(-c4nc5ccccc5[nH]4)c3)c2)C1` (stereo not drawn), for which the IFI was 2.78%.

The molecule `Cc1cccc2nc(-c3ccc(-c4ccc(CN5CCCC(N)C5)cc4)cc3)[nH]c12` (stereo not drawn) displayed an IFI of 4.23%. Under `NC1=NC(CCc2ccccc2)N(c2ccc(Cl)cc2)C(N)=N1` (stereo not drawn) stands 2.21%. Molecule `NC1CCCN(Cc2cccc(-c3ccc(-c4nc5cc(F)ccc5[nH]4)cc3)c2)C1` (stereo not drawn) registered an IFI of 4.23%. `COc1cc(O)c2c(=O)c(OC)c(-c3cccc(Cl)c3OCC(=O)O)oc2c1OC` registered an IFI of 1.4%. Take `c1ccc(CNc2nc(NCCc3c[nH]cn3)nc(N3CCCC4CCCCC43)n2)cc1` (stereo not drawn): the IFI was 0.75%. With `O=C(NC1CCCCC1)N(Cc1cccc(-c2ccc(CNC3CCCC3)cc2)c1)C1CCN(Cc2ccccc2)CC1`, the IFI was 8.96%.

In the case of `Cc1cccc2nc(-c3cccc(-c4cccc(NC(=O)Nc5ccsc5)c4)c3)[nH]c12`, the IFI is 2.02%. The figure for `CN1CCN(c2ccnc3ccc(NC(=O)Cc4ccc(Br)c5ccccc45)cc23)CC1` is 1.44%; for `CN(C)C(=O)CCCn1c(CNCCCNc2cc(=O)c3ccccc3[nH]2)cc2c(Cl)cc(Cl)cc21` it is 3.62%; for `CCN(CC)CCN1C(=O)c2oc3ccc(Cl)cc3c(=O)c2C1c1ccc(SC)cc1` (stereo not drawn) it is 2.38%. The figure for `O=C(C=Cc1ccc(Cl)c(Cl)c1)NCCCCCN1CCCC(CCCNC(=O)C2CC2c2ccccc2)C1` (stereo not drawn) is 3.85%; for `Cn1c(Cc2ccccc2)nnc1Sc1ccc(C#N)c([N+](=O)[O-])c1` it is 0.7%.

`CON=Cc1sc(CNCCCN=c2cc(O)c3ccccc3[nH]2)c(C)c1Br`: the IFI was determined as 6.52%. The figure for `Cc1cccc(C=NN=c2cc(C)[nH]c3ccc(F)cc23)n1` is 2.22%; for `Cc1cc(-c2nc3ccc(C(=O)NCc4ccccc4)cc3n2C2CCN(C(=O)c3ccc(-c4ccccc4)cc3)CC2)ccn1` it is 1.4%; for `COc1ccc(-c2ccc(NC(=O)c3ccc(Cl)cc3)cc2)cc1CN1CCCN(C)CC1` it is 5.94%.

Take `Cc1ccccc1C1CCN(c2ncc(C(=O)Nc3ccccc3)cc2Cl)CC1`: the IFI was 4.08%.

On to `CN(C)c1nc(NCc2ccccc2)nc(N/N=C/c2cc([N+](=O)[O-])ccc2O)n1`, for which the IFI was 6.16%. For the molecule `COc1ccc2nccc(N3CCN(CCNCc4ccc5c(n4)NC(=O)CO5)CC3)c2c1`, the IFI was determined as 3.73%. As for `N#Cc1cccc(NC(=O)Nc2ccc(-c3csc(-c4nc5ccccc5[nH]4)c3)cc2)c1`, the IFI is 6.93%. In the case of `Cn1nc(C(F)(F)F)c(-c2ccc(Br)cc2)c1NC(=O)Cc1ccccc1F`, the IFI is 0.67%.

For `CC(=O)Nc1nc(N)c2c(ccc3c2ccn3CC(C)C)n1`, the IFI was 2.13%. Consider `CCCc1c(Cl)cc(CNCCCNc2nc3ccncc3[nH]2)cc1Cl`, for which the IFI was determined as 2.13%. Turning to `CCc1ccc(C2CCN(CCCCNC(=O)c3ccc(-c4ccc(C#N)cc4)cc3)CC2)c(OCCO)c1`, the IFI stood at 4.55%. As to `CN(C)CCNCc1cccc(-c2cccc(-c3nc4ccccc4[nH]3)c2)c1`, the IFI came out at 4.9%. Take `CCNS(=O)(=O)c1ccc(Oc2ccc([N+](=O)[O-])cc2)cc1`: the IFI was determined as 1.46%.

On to `CC(CN(C)C)Oc1ccc2nc(-c3cccc(OCc4ccccc4)c3)[nH]c2c1C#N` (stereo not drawn), for which the IFI came out at 9.09%.

`CS(=O)(=O)Cc1ccc(Nc2nccc(N3CCCc4cc(NC(=O)Nc5cccc(C(F)(F)F)c5)ccc43)n2)cc1` yielded an IFI of 12.3%. The figure for `CC(=O)c1c[nH]c(C(=O)Nc2ccc(-c3cn4ccccc4n3)cc2)c1` is -0%. The figure for `CN1CCc2cc(Br)c(O)cc2C1Cc1ccccc1Cl` (stereo not drawn) is 4.86%; for `N#Cc1ccc(CN2CCC(Oc3ccc(NC(=O)c4cccs4)cc3Cl)C2)cc1` (stereo not drawn) it is 10.4%.

In turn, `Cc1cccc2nc(-c3ccc(-c4ccc(CN5CCN(CCC#N)CC5)cc4)cc3)[nH]c12` gave an IFI of 9.59%. The figure for `CSCCC(C(=O)O)N1C(=O)c2ccccc2C1=O` (stereo not drawn) is -0%; for `CN1CCN(c2ccnc3ccc(NC(=O)Nc4ccccc4Br)cc23)CC1` it is 0.75%; for `CCN(C)c1cc(C(=O)N[C@@H](Cc2ccccc2)[C@H](O)CNC(C)(C)c2cccc(OC)c2)cc(N2CCCC2=O)c1` it is 3.55%. Under `O=C(/C=C/c1ccc(Cl)c(Cl)c1)NCCCCCN1CCC(CCNC(=O)/C=C/c2cc(C(F)(F)F)ccc2F)CC1` stands 8.97%; under `Cn1nccc1C(=O)NCCNCc1ccc(-c2ccc(-c3nc4ccccc4[nH]3)s2)cc1`, 3.92%; under `Nc1ccc2nc(C=Cc3ccc(Cl)cc3)[nH]c2c1`, 2.11%. In turn, `Cc1cc(N2CCCC2)nc(Nc2ccc(NC(=O)C(C)Oc3ccccc3)cc2)n1` (stereo not drawn) displayed an IFI of 15.4%. The figure for `COc1cccc(C(C)(C)NC[C@@H](O)[C@H](Cc2ccccc2)NC(=O)c2cc(C3CCCC3)cc(N3CCCCS3(=O)=O)c2F)c1` is 12.9%; for `CS(=O)(=O)c1ccc(CCNCc2ccc(-c3ccc(CN(C(=O)c4ccc(Cl)nc4)C4CCN(Cc5ccccc5)CC4)cc3)nc2)cc1` it is 6.25%; for `N=C(N)NN=Cc1ccc2ccc3ccccc3c2c1` it is 7.04%. For the molecule `COc1ccc(NC(=O)Nc2ccc(-c3ccc(-c4nc5ccccc5[nH]4)cc3)cc2)cc1`, the IFI was 0%. The figure for `CC(C)(C)c1ccc2[nH]c(-c3ccc(C(=O)NCCCc4ccccc4)cc3)nc2c1` is 3.7%.

As for `Cc1noc(C)c1-c1cccc(CNCc2ccc(-c3ccc(-c4nc5cc(F)ccc5[nH]4)s3)cc2)c1`, the IFI came out at 4.85%.

`C[C@H](Cc1ccc(OCCCCCCOc2ccc(C[C@@H](C)N[C@H](C)c3ccccc3)cc2)cc1)NC[C@H](O)c1cccc(Cl)c1` had an IFI of 19.6%. Under `O=c1cc(NCCCNCc2[nH]c3cc(Cl)ccc3c2Cl)[nH]c2ccccc12` stands 5.97%; under `C=C1C[C@@H](n2cnc3c(NC(=O)c4ccccc4)ncnc32)[C@@H](F)[C@@H]1OC(c1ccccc1)(c1ccccc1)c1ccccc1`, -0%. The figure for `COc1cc2c(cc1OC)CC(NCc1ccc(-c3ccc4nc[nH]c4c3)cc1)C2` is -0%; for `CC1(C)CNCc2cc(NC(=O)/C=C/c3ccc(Cl)cc3)ccc21` it is 2.27%. For the molecule `CCc1cn(CCS(C)(=O)=O)c2ccc(C(=O)N[C@@H](Cc3ccccc3)[C@H](O)CNC(C)(C)CCCC(C)C)cc12`, the IFI stood at 4.35%.

`CC(Oc1ccc(Cl)cc1)C(=O)Nc1cc(C(F)(F)F)ccc1N1CCOCC1` (stereo not drawn) had an IFI of 7.23%. Under `Cc1nc(-c2ccc(C#N)cc2)sc1C(=O)NCCCCN1CCC(c2ccc3c(c2OCCO)CCCC3)CC1` stands 5.5%; under `CN(C)CCC1CCN(CCS(=O)(=O)c2cccc(Nc3ncc(-c4cccc(F)c4)cn3)c2)CC1`, 10.7%.

As to `CCNc1cc(C(=O)N[C@@H](Cc2cccc(F)c2)[C@H](O)CNC(C)CCCC(C)C)cc(N2CCCCS2(=O)=O)c1` (stereo partly drawn), the IFI amounted to 2.94%.

On to `CCOC(=O)c1nc(-c2cccc(F)c2)[nH]c1N`, for which the IFI is 2.92%. In turn, `CCC(C)NC(=O)Cn1c2ncccc2c(=O)n1-c1ccc(C)cc1` (stereo not drawn) yielded an IFI of 2.33%. `N#Cc1cccc(NC(=O)Nc2ccc(CC(=O)N3CCc4cc(Cl)c(N5CCN(C/C=C/c6ccccc6)CC5)cc43)cc2)c1` gave an IFI of 0.72%. `Nc1c2c(nc3ccc(C(=O)Nc4cc(I)c(O)c(I)c4)cc13)CCCC2`: the IFI was determined as 9.02%. Regarding `N#Cc1ccc(CCNc2nccc(-c3cccc(CN4CCNCC4)c3)n2)cc1`, the IFI was 8.33%. In the case of `CC(=O)Nc1ccc(C(=O)Nc2cccc(-c3ccc(-c4nc5ccccc5[nH]4)cc3)c2)cn1`, the IFI was 7.89%. Molecule `Cc1cc2nc(-c3cccc(C(=O)NC4CCN(Cc5ccccc5)CC4)c3)[nH]c2cc1C` yielded an IFI of 3.01%. Under `O=c1cc(NCCC(CNCCc2ccccc2)NCc2cc(Br)cc(Br)c2)[nH]c2ccccc12` (stereo not drawn) stands 7.69%; under `O=C(/C=C/c1ccc(Cl)c(Cl)c1)NCCCCCCN1CCCN(C(=O)Nc2ccc(C(F)(F)F)cc2)CC1`, 12.3%; under `CCN(CC)CCCCCNc1c2ccc(Cl)cc2nc2ccc(OC)cc12`, 8.03%.

`CCCCCCNC(=O)C1Cc2c([nH]c3ccc(Br)cc23)C2(CCN(CCc3ccccc3)CC2)N1` (stereo not drawn) showed an IFI of 8.45%. Under `O=C(Nc1ccc(Cl)cn1)c1sc2ccccc2c1O` stands 2.44%; under `Cc1nc(N)nc(N)c1OCCCOc1cccc(Cl)c1Cl`, 5.22%. As to `Cc1nc(NCc2ccccc2)cc(Nc2cc(NCc3ccccc3)nc(C)n2)n1`, the IFI came to 3.91%.

Take `CN(C)CCCn1c(C(=O)OC(c2ccccc2)c2ccccc2)cc2cc(OCc3ccccc3)ccc21`: the IFI was determined as 7.89%.

Regarding `Cc1cc(-c2ccc(NC(=O)N3CCc4cc(Br)c(N5CCN(C)CC5)cc43)cc2)ccc1C#N`, the IFI worked out at 12.7%. The figure for `N#Cc1cccc(NC(=O)Nc2ccc(-c3cccc(-c4nc5cc(F)ccc5[nH]4)c3)cc2)c1` is 4.04%; for `Cc1cc(C(=O)CN2C(=O)NC(C)(c3cccc4ccccc34)C2=O)c(C)n1Cc1ccco1` (stereo not drawn) it is 2.82%. Under `Cc1ccc(CNC(=O)c2cc3c(=O)n4cccc(C)c4nc3n(CCN3CCOCC3)c2=N)cc1` stands -0%; under `CCNc1cc(C(=O)N[C@@H](Cc2ccccc2)[C@H](O)CNCc2cc(OC)cc(OC)c2)cc(N2CCCC2=O)c1`, 4.29%; under `Cc1sc(CNCCCNc2cc(=O)c3ccccc3[nH]2)c(C(F)(F)F)c1C`, 5%. `CN1CC[C@@H](Oc2cc(NC(=O)Nc3ccc(Cl)c(C(F)(F)F)c3)ccc2Cl)C1` showed an IFI of 7.63%. Under `COC(=O)c1ccc2nc(-c3ccc(/C=C/C(=O)NCc4ccc(Cl)c(Cl)c4)cc3)[nH]c2c1` stands 3.03%; under `NC1CCN(CCc2ccc(NS(=O)(=O)c3cccc4ccccc34)cc2)CC1`, 8.33%.

For the origin of these results see ChEMBL document CHEMBL1157539, “Thousands of chemical starting points for antimalarial lead identification” (Nature, 2010).
